# According to patent publication US20150320880A1, “ANTIBODY DRUG CONJUGATES” (NOVARTIS AG, priority 2013, published 2015):
# B1: 20376 (antibody)
# heavy: QVQLVQSGAEVKKPGSSVKVSCKASGGTFSSYAISWVRQAPGQGLEWMGGIIPMSGRTTYAQKFQGRVTITADESTSTAYMELSSLRSEDTAVYYCARDYGPEAPDYGQSTSYFWYYAFDPWGQGTLVTVSSASTKGPSVFPLAPSSKSTSGGTAALGCLVKDYFPEPVTVSWNSGALTSGVHTFPAVLQSSGLYSLSSVVTVPSSSLGTQTYICNVNHKPSNTKVDKRV[human IgG1 Fc omitted here]
# light: DIELTQPPSVSVSPGQTASITCSGDNIPSYFVHWYQQKPGQAPVLVIYDDNDRPSGIPERFSGSNSGNTATLTISGTQAEDEADYYCSSWDQDTVVFGGGTKLTVLGQPKAAPSVTLFPPSSEELQANKATLVCLISDFYPGAVTVAWKADSSPVKAGVETTTPSKQSNNKYAASSYLSLTPEQWKSHRSYSCQVTHEGSTVEKTVAPTECS
# What was measured:
# [1] = target: T1, human cKIT ECD (Homo sapiens, UniProt P10721); assay: SPR (Biacore 2000) affinity measurement; format: binding; conditions: 25° C.
# T1 construct: Human cKIT tr. variant 2, residues 26-520-TAG; made in house; host or cells: HEK293 derived cell lines (293FS), transient transfection
# T1 sequence (P10721 with tags, fused parts or gaps isoform P10721-2): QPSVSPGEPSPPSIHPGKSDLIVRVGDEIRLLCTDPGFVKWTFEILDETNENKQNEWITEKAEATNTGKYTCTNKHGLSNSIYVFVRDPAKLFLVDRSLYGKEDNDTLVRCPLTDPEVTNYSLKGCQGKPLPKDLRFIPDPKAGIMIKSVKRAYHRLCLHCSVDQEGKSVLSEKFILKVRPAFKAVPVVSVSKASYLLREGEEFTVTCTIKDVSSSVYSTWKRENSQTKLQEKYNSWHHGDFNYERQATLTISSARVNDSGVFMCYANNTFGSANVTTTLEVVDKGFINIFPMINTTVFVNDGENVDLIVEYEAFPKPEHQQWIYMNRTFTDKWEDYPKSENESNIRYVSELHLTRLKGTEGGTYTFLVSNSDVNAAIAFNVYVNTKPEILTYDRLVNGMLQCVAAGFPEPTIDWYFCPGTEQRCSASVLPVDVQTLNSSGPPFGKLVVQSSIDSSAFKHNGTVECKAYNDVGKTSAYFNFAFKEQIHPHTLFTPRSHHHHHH
# Description: (§1) Affinity of the antibodies to cKIT species orthologues and also to cKIT was determined using SPR technology using a Biacore® 2000 instrument (GE Healthcare, Pittsburgh, Pa.) and with CM5 sensor chips.
# (§2) Briefly, HBS-P (0.01 M HEPES, pH 7.4, 0.15 M NaCl, 0.005% Surfactant P20) supplemented with 2% Odyssey® blocking buffer (Li-Cor Biosciences, Lincoln, Nebr.) was used as the running buffer for all the experiments. The immobilization level and analyte interactions were measured by response unit (RU). Pilot experiments were performed to test and confirm the feasibility of the immobilization of the anti-human Fc antibody (Catalog number BR100839, GE Healthcare, Pittsburgh, Pa.) and the capture of the test antibodies.
# (§3) For kinetic measurements, the experiments were performed in which the antibodies were captured to the sensor chip surface via the immobilized anti-human Fc antibody and the ability of the cKIT proteins to bind in free solution was determined Briefly, 25 μg/ml of anti-human Fc antibody at pH 5 was immobilized on a CM5 sensor chip through amine coupling at flow rate of 5 μl/minute on all two flow cells to reach 10,500 RUs. 0.1-1 μg/ml of test antibodies were then injected at 10 μl/min for 1 minute. Captured levels of the antibodies were generally kept below 200 RUs. Subsequently, 3.125-50 nM of cKIT receptor extracellular domains (ECD) were diluted in a 2-fold series and injected at a flow rate of 40 μl/min for 3 min over both reference and test flow cells. Table of tested ECDs is listed below. Dissociation of the binding was followed for 10 min. After each injection cycle, the chip surface was regenerated with 3 M MgCl2 at 10 μl/min for 30 s.
# [2] = target: mouse cKIT ECD; assay: SPR (Biacore 2000) affinity measurement; format: binding; conditions: 25° C.
# Description: as §1, §2, §3
# [3] = system: cKIT phosphorylation in Mo7e (wild type cKIT) and GIST T-1 (mutant cKIT) cells; assay: Western blot of cKIT phosphorylation and downstream signaling (agonist evaluation); format: cell-based; conditions: 5 μg/ml, 15 minutes
# Description: One well was designated as untreated (UT). Cells were harvested in 1 ml PBS. […] Lysates were then spun down for 40 mins at 12,000 rpm at 4° C. […] After protein transfer to membrane blots, membranes were blocked in TBST-5% milk at room temperature for 1 hour and then probed with primary antibodies overnight at 4° C. Blots were washed in TBST (4×5 mins) on the next day. Blots were incubated in the secondary antibody (goat-anti rabbit-HRP 1:30,000, Santa Cruz) for 1 hr at room temperature. Blots were washed in TBST (4×5 mins) and developed.
# [4] = system: surface cKIT on GIST-T1 cells; assay: cKIT Ab-mediated internalization by flow cytometry; format: cell-based; conditions: 10 μg/ml, 30 min to 24 hr at 37° C.
# Description: The kinetics of cKIT antibody mediated internalization was evaluated by treating with antibody in a cell monolayer using a temperature shift method and flow cytometry readout. GIST-T1 (kindly provided by Dr. Takahiro Taguchi, Kochi U., Japan) cells were seeded at 2.5×10E5 cells/well in five 12-well tissue culture treated plates (BD Falcon 353043). The cells were incubated in a tissue culture incubator at 37° C. with 5% CO2 overnight. The following day medium was removed and replaced with 450 μl fresh medium. […] All cells were incubated for 1 hr on ice, followed by two washes with 1 mL 1× Phosphate buffered saline (PBS) and resuspended in 500 μl cell culture medium. Plates #2-5 were transferred to 37° C. and harvested at time points; 30 min, 2 hr, 4 hr and 24 hr at 37° C. with 5% CO2. 100 μl of cell dissociation buffer (Gibco Cat#13150-016, Life Technologies, Carlsbad, Calif.) was added to plate#1 (4° C. binding control) and incubated at 37° C. until cells were detached. Cells were neutralized with 100 μl of medium and transferred to a 96 well V-bottom tissue culture treated plate (Costar 3894). […] The following day, all samples were analyzed using the BD FACSCanto II® equipment using a HTS system (BD Biosciences, San Jose, Calif.). Samples were analyzed with FlowJo software to obtain the Geometric Mean values of fluorescence for the Phycoerythrin channel. […]
molecule,measurement,setting,value
B1,Affinity human cKIT (nM),[1],nanomolar level
same,Affinity mouse cKIT (nM),[2],cross reacted with mouse
same,"downstream signaling (phospho ERK, phospho AKT)",[3],downstream signaling pathways are not affected
same,phosphorylation of cKIT,[3]; absence of ligand (SCF),can mediate phosphorylation of cKIT in the absence of ligand (SCF)
same,internalization of surface cKIT,[4],rapidly internalized
